From the antibiotic and cytotoxicity screens of Wong et al. (2023)
Some of the results follow.

test system: S. aureus RN4220; assay: growth inhibition call (relative growth <= 0.2); settings: 50 µM

Growth inhibition call, inactive:
COc1ccc(cc1)NC(=O)N1C[C@]2(C1)CN([C@@H](CO)c1[nH]c3cc(ccc3c12)OC)C(=O)CN1CCOCC1
C[C@H](CO)N1C[C@H](C)[C@H](CN(C)Cc2ccc(Cl)c(Cl)c2)Oc2c(NC(=O)Nc3ccc(C(F)(F)F)cc3)cccc2C1=O
COCC#Cc1ccc2c(c1)O[C@@H](CN(C)S(=O)(=O)c1cccc(F)c1)[C@@H](C)CN([C@H](C)CO)S2(=O)=O
C[C@@H]1CCCCO[C@@H](CN(C)Cc2ccc3c(c2)OCO3)[C@@H](C)CN([C@@H](C)CO)C(=O)c2cc(NS(=O)(=O)c3ccc(F)cc3)ccc2O1
C[C@H]1CN([C@@H](C)CO)C(=O)Cc2cc(NC(=O)Cn3cnnn3)ccc2O[C@@H]1CN(C)C(=O)Nc1ccc2c(c1)OCO2
C[C@@H]1NC(=O)[C@@H](N)CNC(=O)[C@H]([C@H]2CCN=C(N)N2)NC(=O)/C(=C\NC(N)=O)NC(=O)[C@H](CNC(=O)C[C@@H](N)CCCN)NC1=O
COc1ccc(CN(CCN(C)C)c2ncccn2)cc1.Cl
C[C@@H]1CN([C@H](C)CO)C(=O)c2cccc(NC(=O)c3cnccn3)c2O[C@H]1CN(C)S(=O)(=O)c1ccccc1
C[C@@H]1CCCCO[C@H](CN(C)C(=O)Nc2ccccc2)[C@@H](C)CN([C@H](C)CO)C(=O)c2cc(NS(=O)(=O)c3ccc(Cl)cc3)ccc2O1
COc1ccc(NC(=O)Nc2ccc3c(c2)C(=O)N([C@@H](C)CO)C[C@H](C)[C@H](CN(C)S(=O)(=O)c2ccc(OC)cc2)OCCCC[C@@H](C)O3)cc1
Cc1cc2nc3c(=O)[nH]c(=O)nc-3n(C[C@H](O)[C@H](O)[C@H](O)COP(=O)(O)OP(=O)(O)OC[C@H]3O[C@@H](n4cnc5c(N)ncnc54)[C@H](O)[C@@H]3O)c2cc1C
Cc1nc(=O)c2cccc(O)c2[nH]1
COc1ccc(S(=O)(=O)Nc2ccc3c(c2)CC(=O)N([C@H](C)CO)C[C@H](C)[C@@H](CN(C)C)O3)cc1
CC(C)NC(=O)Nc1ccc2c(c1)C(=O)N([C@H](C)CO)C[C@H](C)[C@@H](CN(C)C(=O)Nc1ccc(F)cc1)OCCCC[C@@H](C)O2
CCOC(=O)C(C)(C)Oc1ccc(Cl)cc1
Clc1ccc2nc(Cl)cc(-c3ccccc3)c2c1
COC(=O)[C@]12CCC(C)(C)C[C@H]1[C@H]1C(=O)C=C3[C@@]4(C)C=C(C#N)C(=O)C(C)(C)[C@@H]4CC[C@@]3(C)[C@]1(C)CC2
C[C@@H]1CN([C@H](C)CO)C(=O)c2cc(NC(=O)Nc3cccc4ccccc34)ccc2O[C@@H](C)CCCCO[C@H]1CN(C)Cc1ccc(C(F)(F)F)cc1
Cc1noc(C)c1NC(=O)Nc1ccc2c(c1)CC(=O)N([C@H](C)CO)C[C@H](C)[C@H](CN(C)C(=O)NC(C)C)O2
O=C(O)c1c[nH]ccc1=O
C[C@@H]1CCCCO[C@H](CN(C)Cc2ccc(C(=O)O)cc2)[C@@H](C)CN([C@H](C)CO)C(=O)c2cc(NC(=O)Nc3ccc4c(c3)OCO4)ccc2O1
O=C(C[C@@H]1C=C[C@@H](NC(=O)Cc2ccccn2)[C@H](CO)O1)NCCCN1CCOCC1
CC(C)NC(=O)N(C)C[C@@H]1Oc2ccc(NS(=O)(=O)c3ccc(Cl)cc3)cc2CC(=O)N([C@@H](C)CO)C[C@H]1C
COc1ccc(CN(C)C[C@H]2Oc3ccc(NS(=O)(=O)c4cn(C)cn4)cc3C(=O)N([C@@H](C)CO)C[C@H]2C)cc1
Cc1noc(C)c1NC(=O)N(C)C[C@H]1Oc2ncc(C#CCC(C)C)cc2C(=O)N([C@H](C)CO)C[C@H]1C
C[C@@H]1CCCCO[C@@H](CN(C)S(=O)(=O)c2ccc(Cl)cc2)[C@H](C)CN([C@@H](C)CO)C(=O)c2cc(NC(=O)Nc3ccc(C(F)(F)F)cc3)ccc2O1
COc1ccc2c3c([nH]c2c1)[C@@H](CO)N(C[C@]13CCN(CC1)Cc1nccs1)C(=O)C1CCOCC1
CC(C)Cn1c(=O)n(C)c(=O)c2[nH]cnc21
CNC(=O)C[C@@H]1CC[C@H]2[C@@H](COC[C@H](O)CN2C(=O)Nc2cccc(OC)c2)O1
COc1ccc(C2CC(=O)c3c(O)cc(OC4OC(COC5OC(C)C(O)C(O)C5O)C(O)C(O)C4O)cc3O2)cc1O (stereo not given)
